Measurements published in patent US5235038A, “Deletion and substitution analogues of melittin peptide” (Torry Pines Institute for Molecular Studies, priority 1991, dated 1993).
≈ marks a conversion by molar mass, not a printed value. Not every detail of the peptide structures is certain; ends, links or a residue may be inferred.

Assays:
[1] = system: Pseudomonas aeruginosa ATCC 27853; experiment: Antimicrobial assay, minimum inhibitory concentration (MIC); assay type: cell-based; details: P. aeruginosa ATCC 27853, LB medium, 37° C., no change in OD 620nm between 0 and 18 hours
[2] = system: Staphylococcus aureus ATCC 29213; experiment: as above; assay type: cell-based; details: S. aureus ATCC 29213, LB medium, 37° C., no change in OD 620nm between 0 and 18 hours

| Structure (SMILES) | MIC P. aeruginosa [1] | MIC S. aureus [2] |
| --- | --- | --- |
| CC[C@H](C)[C@H](NC(=O)CN)C(=O)NCC(=O)N[C@@H](C)C(=O)N[C@H](C(=O)N[C@@H](CC(C)C)C(=O)N[C@@H](CCCCN)C(=O)N[C@H](C(=O)N[C@@H](CC(C)C)C(=O)N[C@H](C(=O)N[C@H](C(=O)NCC(=O)N[C@@H](CC(C)C)C(=O)N1CCC[C@H]1C(=O)N[C@@H](C)C(=O)N[C@@H](CC(C)C)C(=O)N[C@H](C(=O)N[C@@H](CO)C(=O)N[C@@H](Cc1c[nH]c2ccccc12)C(=O)N[C@H](C(=O)N[C@@H](CCCCN)C(=O)N[C@@H](CCCCN)C(=O)N[C@@H](CCCNC(=N)N)C(=O)N[C@@H](CCC(N)=O)C(=O)N[C@@H](CCC(N)=O)C(N)=O)[C@@H](C)CC)[C@@H](C)CC)[C@@H](C)O)[C@@H](C)O)C(C)C)C(C)C [SEQ ID NO: 22] | 50 µg/mL (≈ 18.6 µM) | 50 µg/mL (≈ 18.6 µM) |
| CC[C@H](C)[C@H](NC(=O)CN)C(=O)NCC(=O)N[C@@H](C)C(=O)N[C@H](C(=O)N[C@@H](CC(C)C)C(=O)N[C@@H](CCCCN)C(=O)N[C@H](C(=O)N[C@@H](CC(C)C)C(=O)N[C@H](C(=O)N[C@H](C(=O)NCC(=O)N[C@@H](CC(C)C)C(=O)N1CCC[C@H]1C(=O)N[C@@H](C)C(=O)N[C@@H](CC(C)C)C(=O)N[C@H](C(=O)N[C@@H](CO)C(=O)N[C@@H](Cc1c[nH]c2ccccc12)C(=O)N[C@H](C(=O)N[C@@H](CCCCN)C(=O)N[C@@H](CCCNC(=N)N)C(=O)N[C@@H](CCCNC(=N)N)C(=O)N[C@@H](CCC(N)=O)C(=O)N[C@@H](CCC(N)=O)C(N)=O)[C@@H](C)CC)[C@@H](C)CC)[C@@H](C)O)[C@@H](C)O)C(C)C)C(C)C [SEQ ID NO: 23] | 50 µg/mL (≈ 18.4 µM) | 50 µg/mL (≈ 18.4 µM) |
| CC[C@H](C)[C@H](NC(=O)CN)C(=O)NCC(=O)N[C@@H](C)C(=O)N[C@H](C(=O)N[C@@H](CC(C)C)C(=O)N[C@@H](CCCCN)C(=O)N[C@H](C(=O)N[C@@H](CC(C)C)C(=O)N[C@H](C(=O)N[C@H](C(=O)NCC(=O)N[C@@H](CC(C)C)C(=O)N1CCC[C@H]1C(=O)N[C@@H](C)C(=O)N[C@@H](CC(C)C)C(=O)N[C@H](C(=O)N[C@@H](CO)C(=O)N[C@@H](Cc1c[nH]c2ccccc12)C(=O)N[C@H](C(=O)N[C@@H](CCCCN)C(=O)N[C@@H](CCCNC(=N)N)C(=O)N[C@@H](CCCCN)C(=O)N[C@@H](CCC(N)=O)C(=O)N[C@@H](CCC(N)=O)C(N)=O)[C@@H](C)CC)[C@@H](C)CC)[C@@H](C)O)[C@@H](C)O)C(C)C)C(C)C [SEQ ID NO: 24] | 50 µg/mL (≈ 18.6 µM) | 25 µg/mL (≈ 9.29 µM) |
| CC[C@H](C)[C@H](NC(=O)CN)C(=O)NCC(=O)N[C@@H](C)C(=O)N[C@H](C(=O)N[C@@H](CC(C)C)C(=O)N[C@@H](CCCCN)C(=O)N[C@H](C(=O)N[C@@H](CC(C)C)C(=O)N[C@H](C(=O)N[C@H](C(=O)NCC(=O)N[C@@H](CC(C)C)C(=O)N1CCC[C@H]1C(=O)N[C@@H](C)C(=O)N[C@@H](CC(C)C)C(=O)N[C@H](C(=O)N[C@@H](CO)C(=O)N[C@@H](Cc1c[nH]c2ccccc12)C(=O)N[C@H](C(=O)N[C@@H](CCCCN)C(=O)N[C@@H](CCCNC(=N)N)C(=O)N[C@@H](CCCCN)C(=O)N[C@@H](CCCNC(=N)N)C(=O)N[C@@H](CCC(N)=O)C(N)=O)[C@@H](C)CC)[C@@H](C)CC)[C@@H](C)O)[C@@H](C)O)C(C)C)C(C)C [SEQ ID NO: 25] | 50 µg/mL (≈ 18.4 µM) | 25 µg/mL (≈ 9.2 µM) |
